# Measured values taken from PubChem BioAssay AID1347165 (National Center for Advancing Translational Sciences (NCATS), 2019).
# Hit rate of the full screen: of about 220,000 compounds, about 5,700 (2.6%) were called active. Inconclusive results, whose numbers are uncertain, are shown with a selection of clear calls. Calls follow the shape of the dose curve; as a rule, active = well fitted inhibition curve with a large enough effect; inconclusive = small, poorly fitted or top-dose-only effect; inactive = no such curve, though single readings can be large or run the other way. Potencies of inconclusive entries are doubtful fits and often do not repeat.
# Molecular target: Lysine-specific demethylase 5B (Homo sapiens) (UniProt Q9UGL1)
# Test: Primary screen for KDM5B Histone Demethylases FDH-coupled qHTS; also: nearly all actives have a fitted effect of over 70% in size
# Settings: FDH-coupled NADH fluorescence (FDH is formaldehyde dehydrogenase); series mostly up to 57.7 µM
# How it was run: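 KDM5BΔAP (200 nM final) in 50 mM HEPES pH 7.5, 0.01% Tween-20 was preincubated 10 min at RT with compound over a concentration range. Substrate mix (H3K4me3 12.5 µM, α-KG 25 µM, Fe²⁺, ascorbate, NAD⁺, FDH) was added, and NADH fluorescence change over 30 min gave dose-response curves.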
# Potency is read from the fitted curve at half-maximal effect; tags tell the direction and shape of the fitted curve.
# Chain of UniProt Q9UGL1 (Q9UGL1 whole entry, looked up): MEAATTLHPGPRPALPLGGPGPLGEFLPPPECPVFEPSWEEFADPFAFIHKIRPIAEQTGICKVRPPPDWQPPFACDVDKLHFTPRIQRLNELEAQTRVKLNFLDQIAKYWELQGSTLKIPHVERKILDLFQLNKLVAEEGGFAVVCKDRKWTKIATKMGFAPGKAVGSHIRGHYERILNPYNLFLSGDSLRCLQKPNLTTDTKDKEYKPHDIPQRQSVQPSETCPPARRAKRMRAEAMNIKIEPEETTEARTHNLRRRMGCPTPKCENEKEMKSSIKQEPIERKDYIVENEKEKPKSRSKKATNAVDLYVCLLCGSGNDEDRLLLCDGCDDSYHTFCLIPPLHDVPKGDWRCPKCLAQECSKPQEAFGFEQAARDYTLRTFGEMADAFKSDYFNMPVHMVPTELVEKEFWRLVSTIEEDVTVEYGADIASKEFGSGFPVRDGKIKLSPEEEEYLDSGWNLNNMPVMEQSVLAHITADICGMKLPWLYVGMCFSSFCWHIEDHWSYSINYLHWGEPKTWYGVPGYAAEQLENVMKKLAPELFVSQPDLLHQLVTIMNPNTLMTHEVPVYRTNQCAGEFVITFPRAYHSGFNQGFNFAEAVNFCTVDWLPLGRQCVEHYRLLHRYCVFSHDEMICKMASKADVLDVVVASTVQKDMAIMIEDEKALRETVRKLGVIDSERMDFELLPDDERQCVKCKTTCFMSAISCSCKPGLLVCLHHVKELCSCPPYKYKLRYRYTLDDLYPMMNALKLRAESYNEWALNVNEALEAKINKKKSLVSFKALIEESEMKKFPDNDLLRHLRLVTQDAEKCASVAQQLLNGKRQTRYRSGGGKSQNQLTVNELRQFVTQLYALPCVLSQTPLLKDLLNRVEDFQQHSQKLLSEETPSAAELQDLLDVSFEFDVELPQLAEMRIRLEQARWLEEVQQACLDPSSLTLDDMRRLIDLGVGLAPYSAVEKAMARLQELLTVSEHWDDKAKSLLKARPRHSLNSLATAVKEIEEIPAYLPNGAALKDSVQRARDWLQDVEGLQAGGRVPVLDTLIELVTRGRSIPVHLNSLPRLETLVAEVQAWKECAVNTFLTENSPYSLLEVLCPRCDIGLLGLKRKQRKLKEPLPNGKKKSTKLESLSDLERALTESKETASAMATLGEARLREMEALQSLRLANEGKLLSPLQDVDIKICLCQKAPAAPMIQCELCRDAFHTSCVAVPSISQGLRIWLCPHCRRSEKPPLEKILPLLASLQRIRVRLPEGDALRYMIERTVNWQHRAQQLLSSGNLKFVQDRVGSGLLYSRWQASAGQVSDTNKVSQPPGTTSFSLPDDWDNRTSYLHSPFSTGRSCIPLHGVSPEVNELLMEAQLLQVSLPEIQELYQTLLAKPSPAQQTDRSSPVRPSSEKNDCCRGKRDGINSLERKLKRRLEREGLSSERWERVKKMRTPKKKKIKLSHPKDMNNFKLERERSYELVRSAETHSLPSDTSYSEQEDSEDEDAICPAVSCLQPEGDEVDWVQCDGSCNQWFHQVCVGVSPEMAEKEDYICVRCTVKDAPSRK
row,Compound,Potency
1,CCCNC(=O)N[C@@H]1CCC[C@@H](C(=O)N(CC)CC)CC(=O)N(C)C1,"inconclusive: 44.7 µM [inhibitor, partial curve, poor fit]"
2,NC(=O)c1ccsc1NC(=O)c1ccc([N+](=O)[O-])o1,"inconclusive: 17.8 µM [inhibitor, partial curve, poor fit]"
3,Cc1ccccc1-c1nc(S(=O)(=O)c2ccc3c(c2)OCCO3)c(NCCN2CCOCC2)o1,inactive
4,COc1ccc(-c2nc(C(C)C)nc3c2CN([S+](=O)([O-])c2ccccc2)CC3)cc1,inactive
5,O=C(O)COCC(=O)N[C@H]1CCN2C(=O)c3cc(-c4cccs4)ccc3NC(=O)[C@H]12,"inconclusive: 39.8 µM [inhibitor, partial curve, poor fit]"
6,COc1ccc(OCC(=O)Nc2ccc3c(C)cc(=O)oc3c2)cc1,"inconclusive: 39.8 µM [inhibitor, single point]"
7,COc1ccc(-c2nnc([C@H]3CCN(Cc4ccc(F)c(F)c4)C3)o2)cc1,"inconclusive: 31.6 µM [inhibitor, single point]"
8,COc1ccc(-c2onc3ccc(Br)cc23)cc1OC,"inconclusive: 28.2 µM [inhibitor, partial curve, poor fit]"
9,O=C(NCc1ccc2c(c1)OCO2)c1ccc(N2CCCN(Cc3ccccc3)C2=O)cc1,inactive
10,CCn1cc(S(=O)(=O)N2CCC(c3noc(-c4cccnc4)n3)C2)cn1 (configuration not stated),inactive
11,CCOc1ccc2nc(N(Cc3cccnc3)C(=O)C3=COCCO3)sc2c1,inactive
12,Cc1cccc(NC(=O)c2cc3n(n2)CC(c2ccc(Cl)cc2)OC3)c1C (configuration not stated),"inconclusive: 22.4 µM [inhibitor, single point]"
13,COCCN1CCCCCC(O)c2cc(C(=O)NCCN3CCOCC3)ccc21 (configuration not stated),inactive
14,CC(C)(C)C(=O)Nc1ccc(C(=O)Nc2ccc(NC(=O)c3ccc(NC(=O)C(C)(C)C)cc3)c(Cl)c2)cc1,inactive
15,COc1ccc(N2CCN(C(=O)c3ccc4c(c3)N(C)C3CCCCN3C4=O)CC2)cc1 (configuration not stated),"inconclusive: 22.4 µM [inhibitor, partial curve, poor fit]"
16,CS(=O)(=O)c1ncc(Cl)c(C(=O)N(Cc2ccc(Cl)cc2)Cc2ccco2)n1,"inconclusive: 3.16 µM [inhibitor, full curve, poor fit]"
17,Cc1cccc(/C=C/c2cc(C(=O)O)c3ccccc3n2)c1,"inconclusive: 39.8 µM [inhibitor, single point]"
18,CCOc1ccccc1CNC(=O)c1ccc2c(c1)N(CC)CCS2,"inconclusive: 28.2 µM [inhibitor, partial curve, poor fit]"
19,c1ccc(Cn2cnnc2CC2CCNCC2)cc1,"inconclusive: 11.2 µM [inhibitor, partial curve, poor fit]"
20,COc1ccc(C2Cn3nnc(-c4noc(/C=C/c5ccco5)n4)c3CO2)cc1 (configuration not stated),"inconclusive: 22.4 µM [inhibitor, single point]"
21,O=C(Cn1c(-c2cccs2)cc2ccccc21)NCCCN1CCN(c2cccc(Cl)c2)CC1,"inconclusive: 31.6 µM [inhibitor, partial curve, poor fit]"
22,CN(CC1CCCO1)c1ccc(C(=O)N2CCC(N3CCOCC3)CC2)cn1 (configuration not stated),"inconclusive: 25.1 µM [inhibitor, single point]"
23,O=S(=O)(c1cccs1)N1CCOc2ccc(COCc3cccc(F)c3)cc2C1,inactive

row,Compound,Potency
1,O=C1NCc2ccccc2CC12CCN(Cc1ccccc1C(F)(F)F)C2 (configuration not stated),inactive
2,COCC1CN(C(=O)CCc2ccccc2OC)CC12CCNCC2 (configuration not stated),"inconclusive: 22.4 µM [inhibitor, single point]"
3,COc1cc(Cl)c(C)cc1NC(=O)c1c(C)oc2nc(C)nc(N3CCCC3)c12,"inconclusive: 17.8 µM [inhibitor, partial curve, poor fit]"
4,COc1cccc(NC(=O)N2CCCC3(C2)Nc2cccnc2NC3=NC2CCCC2)c1 (configuration not stated),"inconclusive: 4.47 µM [inhibitor, partial curve, poor fit]"
5,O=C(NCCc1ccc(Cl)cc1)c1nc(-c2ccc(Cl)cc2Cl)c2cnccn12,active: 56.2 µM
6,c1ccc(CN2CCC[C@H]2c2nc(-c3ccnc(N4CCOCC4)c3)no2)cc1,active: 35.5 µM
7,COc1cccc(-c2cc3c(=O)n(CCNC(=O)c4ccoc4)ccn3n2)c1,inactive
8,Fc1cccc(CN2CCCC3(CCN(c4cnccn4)C3)C2)c1F (configuration not stated),active: 28.2 µM
9,CC(C)NC(=O)NCC1Cn2cccc2CN1C (configuration not stated),"inconclusive: 20 µM [inhibitor, partial curve, poor fit]"
10,O=C1NC2(CCN(S(=O)(=O)c3ccccc3)CC2)Nc2ccccc21,"inconclusive: 20 µM [inhibitor, partial curve, poor fit]"
11,CN(CC(=O)NC(=O)NCc1ccccc1)CC(=O)Nc1ccc(Cl)cc1,inactive
12,CCCN1CC(=O)N2Cc3[nH]c4ccccc4c3C[C@H]2C1=O,"inconclusive: 39.8 µM [inhibitor, single point]"
13,COc1ccc(C(CNC(=O)c2oc3ccccc3c2C)N2CCCCC2)cc1 (configuration not stated),inactive
14,C=CCOC(=O)C1=C(C)N=C2SC=C(CC(=O)NC3CC3)N2C1c1cc(OC)cc(OC)c1 (configuration not stated),"inconclusive: 31.6 µM [inhibitor, partial curve, poor fit]"
15,O=c1cc(CSc2nnnn2-c2ccccc2)[nH]n1-c1ccc(Cl)cc1,inactive
16,O=C(CC1CCCC1)N1CCOc2ccc(CN3CCc4ccccc4C3)cc2C1,"inconclusive: 17.8 µM [inhibitor, single point]"
17,CC(C)CNc1cccc2c1S(=O)(=O)N(Cc1cn(Cc3ccc(F)cc3)nn1)Cc1ccccc1O2,"inconclusive: 28.2 µM [inhibitor, partial curve, poor fit]"
18,O=C(NCc1csc(-c2cnccn2)n1)[C@H]1CCC[C@H](O)C1,active: 28.2 µM
19,CC(C)NC(=O)CC[C@@H]1CNC(=O)[C@@H]2C[C@H](NCc3ccc(CO)o3)CN12,"inconclusive: 25.1 µM [inhibitor, partial curve, poor fit]"
20,CCc1ccc(OCC(O)CN2CCN(c3ccc(OC)cc3)CC2)cc1 (configuration not stated),"inconclusive: 39.8 µM [inhibitor, partial curve, poor fit]"
21,O=C(C1CCCC1)N1Cc2ccccc2CC2(CCN(Cc3ccncc3)C2)C1 (configuration not stated),"inconclusive: 56.2 µM [inhibitor, partial curve, poor fit]"
22,O=C(NC1CCCC1)c1cc(C2CC2)nc2onc(C3CCCNC3)c12 (configuration not stated),"inconclusive: 63.1 µM [inhibitor, partial curve, poor fit]"
23,c1ccc(OCc2nc(-c3ccc4c(c3)OCCCO4)cs2)cc1,inactive

row,Compound,Potency
1,O=C(CN1CCC2(CC1)OCCO2)Nc1cc(Cl)cc(Cl)c1,inactive
2,CCN1CCN(C(=O)Cn2c(-c3cccs3)cc3cc(Cl)ccc32)CC1,"inconclusive: 31.6 µM [inhibitor, partial curve, poor fit]"
3,Cc1ccc2c(c1)C(C[C@H]1CN(C(=O)NC(C)C)CC[C@H]1CC(=O)O)=NCC2,"inconclusive: 63.1 µM [inhibitor, partial curve, poor fit]"
4,COC(=O)CNC(=O)c1nc(-c2cccc(C(F)(F)F)c2)c2ccccn12,active: 14.1 µM
5,Cc1ccsc1C(=O)N1CCCC(c2noc(COc3ccccc3F)n2)C1 (configuration not stated),inactive
6,CCOC(=O)c1cc2c(=O)n3ccccc3nc2n(CC(C)C)c1=NC(=O)C(C)(C)Oc1ccc(Cl)cc1,"inconclusive: 25.1 µM [inhibitor, partial curve, poor fit]"
7,COc1ccccc1CC(=O)N1CCN(c2cc(-c3ccccc3)[nH]n2)CC1,inactive
8,CN(Cc1cccc(F)c1)C(=O)COc1ccc2ccc(=O)oc2c1,"inconclusive: 22.4 µM [inhibitor, partial curve, poor fit]"
9,CCc1c(C)nc(N)nc1NCc1noc(COC)n1,"inconclusive: 25.1 µM [inhibitor, partial curve, poor fit]"
10,CN(C)C(=O)c1nc(C(C)(C)C)c2cnccn12,active: 89.1 µM
11,Cc1ccc(C(=O)N2CCC3(CC2)N=C(c2ccc(Cl)cc2)NO3)s1,"inconclusive: 12.6 µM [inhibitor, partial curve, poor fit]"
12,CCn1nc(C(=O)Nc2ccc(OC)cc2)c2ccccc2c1=O,inactive
13,CC1(C)CC(C)(c2ccccc2)c2cccc(C(=O)O)c2N1 (configuration not stated),"inconclusive: 22.4 µM [inhibitor, partial curve, poor fit]"
14,Nc1cccc(NS(N)(=O)=O)c1,"inconclusive: 22.4 µM [inhibitor, partial curve, poor fit]"
15,Cc1cccc(C2CCCN2C(=O)c2cc(-c3ccco3)on2)c1 (configuration not stated),"inconclusive: 39.8 µM [inhibitor, single point]"
16,COc1cc(/C=C(/C#N)C(=O)C(C)C)cc(Br)c1O,inactive
17,COc1ccc(Cl)cc1NC(=O)C(C)n1c(=O)cc(C(F)(F)F)c2c(C)nn(C)c21 (configuration not stated),"inconclusive: 1.41 µM [inhibitor, full curve, poor fit]"
18,CS(=O)(=O)c1ncc(N(Cc2ccco2)Cc2cccs2)c(C(=O)Nc2ccccc2F)n1,"inconclusive: 35.5 µM [inhibitor, single point]"
19,CCOc1c(Cl)cc(C(=O)NC(C)Cn2cccn2)cc1OC (configuration not stated),inactive
20,O=C1NC2(CCN(Cc3ccccc3)C2)COc2ccccc21 (configuration not stated),active: 39.8 µM
21,COc1ccc(-c2csc(-c3nc(-c4cc(C)ccc4C)cs3)n2)cc1,"inconclusive: 8.91 µM [inhibitor, full curve, poor fit]"
